No constants are given. Whether binding was seen depends on the method and setting. Binding seen in cells or lysates may run through a third protein. Some results given as binding are weak or reduced against the parent protein; the word gives no strength. Sequences can lack the tags named with a protein.

Assay [1] concerns the target T1, hThrRS-L-His6 expressed in E. coli (human) (UniProt A2RTX5).
T1 sequence: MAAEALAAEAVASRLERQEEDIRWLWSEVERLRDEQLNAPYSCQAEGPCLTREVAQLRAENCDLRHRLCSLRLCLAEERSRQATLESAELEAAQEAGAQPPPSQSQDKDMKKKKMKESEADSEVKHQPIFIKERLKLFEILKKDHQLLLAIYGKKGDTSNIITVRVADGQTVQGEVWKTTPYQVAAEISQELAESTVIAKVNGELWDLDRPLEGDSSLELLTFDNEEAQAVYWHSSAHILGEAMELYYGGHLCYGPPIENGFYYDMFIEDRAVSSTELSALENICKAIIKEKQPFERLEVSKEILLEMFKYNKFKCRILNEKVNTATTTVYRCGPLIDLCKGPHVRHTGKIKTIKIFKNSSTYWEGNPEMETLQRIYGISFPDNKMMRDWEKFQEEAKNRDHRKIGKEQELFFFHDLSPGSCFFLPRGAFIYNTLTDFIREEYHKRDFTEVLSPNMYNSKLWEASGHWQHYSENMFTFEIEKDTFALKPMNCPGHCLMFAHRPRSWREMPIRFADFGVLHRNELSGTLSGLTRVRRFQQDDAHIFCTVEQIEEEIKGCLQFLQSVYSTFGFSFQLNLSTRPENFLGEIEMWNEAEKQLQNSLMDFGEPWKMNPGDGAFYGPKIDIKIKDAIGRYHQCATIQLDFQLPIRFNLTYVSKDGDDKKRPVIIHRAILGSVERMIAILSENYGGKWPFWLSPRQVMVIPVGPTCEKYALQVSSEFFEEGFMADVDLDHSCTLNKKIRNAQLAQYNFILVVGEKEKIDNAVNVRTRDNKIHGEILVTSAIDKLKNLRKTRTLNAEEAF
The assay is described as follows: pull-down; hThrRS-L-His6 co-expressed with the partner from pRSFDuet1 in E. coli; Ni-NTA affinity chromatography; western blotting.

In assay [2] the target is T2, native p43 (AIMP1), endogenous in human cells (human (endogenous in HEK293T and HeLa)) (UniProt Q12904).
T2 sequence: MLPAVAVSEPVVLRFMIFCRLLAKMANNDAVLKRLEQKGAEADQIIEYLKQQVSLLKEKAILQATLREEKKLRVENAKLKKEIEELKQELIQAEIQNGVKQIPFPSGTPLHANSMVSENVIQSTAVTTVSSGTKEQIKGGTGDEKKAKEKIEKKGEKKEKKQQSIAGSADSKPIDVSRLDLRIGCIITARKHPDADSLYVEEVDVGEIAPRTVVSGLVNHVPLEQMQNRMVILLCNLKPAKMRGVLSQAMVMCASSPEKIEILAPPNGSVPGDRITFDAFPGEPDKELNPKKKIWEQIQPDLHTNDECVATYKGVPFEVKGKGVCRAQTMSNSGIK
As to the kind of experiment: co-IP; transfected HEK293T lysate, IP with anti-p43 antibodies; western blotting. In general terms: A western blot detects proteins with antibodies after separation by electrophoresis.

In assay [3] the target is T3, C-terminal FLAG-tagged human threonyl-tRNA synthetase-like protein (hThrRS-L-FLAG) (human) (UniProt A2RTX5).
T3 sequence: T1 sequence
The assay is described as follows: co-IP; both proteins overexpressed with different tags in HEK293T; lysis buffer 50 mM Tris-HCl pH 7.5, 150 mM NaCl, 5 mM EDTA, 1% Triton X-100; antibody overnight, Dynabeads protein G, 4°C; western blotting.

In assay [4] the target is T3, C-terminal FLAG-tagged human threonyl-tRNA synthetase-like protein (hThrRS-L-FLAG) (human). As to the kind of experiment: co-IP; FLAG-tagged hThrRS-L or mutant overexpressed in HEK293T; IP with anti-FLAG, Dynabeads protein G, 4°C; endogenous partners detected by western blotting.
For assay [5], the target named is T4, hThrRS-L-Δ161-FLAG, hThrRS-L with TLN161 deleted, C-terminal FLAG tag (human) (UniProt A2RTX5).
T4 sequence: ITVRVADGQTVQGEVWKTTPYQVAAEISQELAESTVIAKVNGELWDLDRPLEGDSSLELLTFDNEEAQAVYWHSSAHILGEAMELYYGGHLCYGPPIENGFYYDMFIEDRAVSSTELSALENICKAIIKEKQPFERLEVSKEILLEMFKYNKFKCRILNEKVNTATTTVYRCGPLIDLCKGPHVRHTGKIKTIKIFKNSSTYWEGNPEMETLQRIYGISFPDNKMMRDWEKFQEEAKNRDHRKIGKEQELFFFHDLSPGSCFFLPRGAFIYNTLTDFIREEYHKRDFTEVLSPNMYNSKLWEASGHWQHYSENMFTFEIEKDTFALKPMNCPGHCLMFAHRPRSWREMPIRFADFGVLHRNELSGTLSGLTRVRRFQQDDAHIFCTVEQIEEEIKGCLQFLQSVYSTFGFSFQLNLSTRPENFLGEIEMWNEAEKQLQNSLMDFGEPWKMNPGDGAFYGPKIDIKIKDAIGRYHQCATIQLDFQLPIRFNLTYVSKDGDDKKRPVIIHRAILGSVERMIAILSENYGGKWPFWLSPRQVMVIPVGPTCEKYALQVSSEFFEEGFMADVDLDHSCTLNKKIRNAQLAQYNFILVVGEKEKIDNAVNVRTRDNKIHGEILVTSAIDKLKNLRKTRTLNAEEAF
The description is as above.

B1: p43 overexpressed in E. coli (protein, UniProt Q12904-2 1-336)
chain: T2 sequence
As for B1, the binding entry in assay [1] is given as “binds”.

B2: C-terminal FLAG-tagged human threonyl-tRNA synthetase-like protein (hThrRS-L-FLAG) (enzyme, UniProt A2RTX5 1-802)
chain: T1 sequence
Turning to B2, the binding result in assay [2] and in assay [3] was “binds” throughout.

B3: ArgRS overexpressed in E. coli (enzyme, UniProt P54136 1-660)
chain: MDVLVSECSARLLQQEEEIKSLTAEIDRLKNCGCLGASPNLEQLQEENLKLKYRLNILRKSLQAERNKPTKNMINIISRLQEVFGHAIKAAYPDLENPPLLVTPSQQAKFGDYQCNSAMGISQMLKTKEQKVNPREIAENITKHLPDNECIEKVEIAGPGFINVHLRKDFVSEQLTSLLVNGVQLPALGENKKVIVDFSSPNIAKEMHVGHLRSTIIGESISRLFEFAGYDVLRLNHVGDWGTQFGMLIAHLQDKFPDYLTVSPPIGDLQVFYKESKKRFDTEEEFKKRAYQCVVLLQGKNPDITKAWKLICDVSRQELNKIYDALDVSLIERGESFYQDRMNDIVKEFEDRGFVQVDDGRKIVFVPGCSIPLTIVKSDGGYTYDTSDLAAIKQRLFEEKADMIIYVVDNGQSVHFQTIFAAAQMIGWYDPKVTRVFHAGFGVVLGEDKKKFKTRSGETVRLMDLLGEGLKRSMDKLKEKERDKVLTAEELNAAQTSVAYGCIKYADLSHNRLNDYIFSFDKMLDDRGNTAAYLLYAFTRIRSIARLANIDEEMLQKAARETKILLDHEKEWKLGRCILRFPEILQKILDDLFLHTLCDYIYELATAFTEFYDSCYCVEKDRQTGKILKVNMWRMLLCEAVAAVMAKGFDILGIKPVQRM
For the molecule B3, the binding entry in assay [1] was “binds”.

B4: GlnRS, endogenous in HEK293T (enzyme, UniProt P47897 1-775)
chain: MAALDSLSLFTSLGLSEQKARETLKNSALSAQLREAATQAQQTLGSTIDKATGILLYGLASRLRDTRRLSFLVSYIASKKIHTEPQLSAALEYVRSHPLDPIDTVDFERECGVGVIVTPEQIEEAVEAAINRHRPQLLVERYHFNMGLLMGEARAVLKWADGKMIKNEVDMQVLHLLGPKLEADLEKKFKVAKARLEETDRRTAKDVVENGETADQTLSLMEQLRGEALKFHKPGENYKTPGYVVTPHTMNLLKQHLEITGGQVRTRFPPEPNGILHIGHAKAINFNFGYAKANNGICFLRFDDTNPEKEEAKFFTAICDMVAWLGYTPYKVTYASDYFDQLYAWAVELIRRGLAYVCHQRGEELKGHNTLPSPWRDRPMEESLLLFEAMRKGKFSEGEATLRMKLVMEDGKMDPVAYRVKYTPHHRTGDKWCIYPTYDYTHCLCDSIEHITHSLCTKEFQARRSSYFWLCNALDVYCPVQWEYGRLNLHYAVVSKRKILQLVATGAVRDWDDPRLFTLTALRRRGFPPEAINNFCARVGVTVAQTTMEPHLLEACVRDVLNDTAPRAMAVLESLRVIITNFPAAKSLDIQVPNFPADETKGFHQVPFAPIVFIERTDFKEEPEPGFKRLAWGQPVGLRHTGYVIELQHVVKGPSGCVESLEVTCRRADAGEKPKAFIHWVSQPLMCEVRLYERLFQHKNPEDPTEVPGGFLSDLNLASLHVVDAALVDCSVALAKPFDKFQFERLGYFSVDPDSHQGKLVFNRTVTLKEDPGKV
With B4, the results for the binding result in assay [4] and in assay [5] were “binds” and “no binding”, respectively.

These data come from publication PMC6794377.
